Results taken from PubChem BioAssay AID652154 (Broad Institute, 2013).
About 4,200 (1.2%) of roughly 360,000 compounds were called active. Inconclusive results, whose numbers are uncertain, are shown with a selection of clear calls.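 The calls were made as follows: active = mean replicate inhibition at least 60% with every replicate also reaching 60%; inconclusive = only one of the two criteria is met; inactive = mean below 60% and not all replicates reaching 60%.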

Experiment: inhibitors of PAX8-driven TPO luciferase reporter, primary screen, RMG-I cells, single concentration (AID 652154);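 also: luciferase light reporting Pax8 driven TPO promoter activity; plate controls were median of neutral control wells for no effect and mitoxantrone controls for full effect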
Details: SteadyGlo, 24 h, at 12.6 µM, stronger effect = higher value
In the case of C[C@@H]1CCCCO[C@@H](CN(C)C(=O)Nc2ccc(C(F)(F)F)cc2)[C@H](C)CN([C@@H](C)CO)C(=O)c2cc(NC(=O)Nc3ccc(F)cc3)ccc2O1, the inhibition was inconclusive: 61.4%. With O=C(NC(c1ccc(F)cc1)c1ccc2ccccc2n1)C1CCN(Cc2cccc(C(F)(F)F)c2)CC1 (stereo unspecified) the inhibition was inactive: 54.1%. In the case of C=CC[C@H](CC(=O)N(CCO)Cc1ccccc1)C(=O)N[C@H](COC(=O)[C@@H](CC=C)Cc1ccc(F)cc1)Cc1c[nH]c2ccccc12, the inhibition was active: 82%. In the case of O=S(=O)(N[C@@H]1CC[C@H](CCn2cc(C3CC3)nn2)O[C@H]1CO)c1ccc(F)cc1, the inhibition was inactive: 5.27%. In the case of O=C(C[C@@H]1CC[C@H]2[C@@H](COC[C@H](O)CN2S(=O)(=O)c2cccc(Cl)c2)O1)Nc1ccc(-c2ccccc2)cc1, the inhibition was active: 67.4%. For Cc1ccc(-n2nc3c(N4CCC(C(=O)NCc5ccc(C)o5)CC4)nnc(C)c3c2C)cc1, the inhibition was inconclusive: 62%. In the case of C[C@H]1CCCCO[C@H](CN(C)S(=O)(=O)c2ccc(Cl)cc2)[C@@H](C)CN([C@@H](C)CO)C(=O)c2cc(NS(=O)(=O)c3ccc(F)cc3)ccc2O1, the inhibition was active: 86.3%. In the case of CCOC(=O)c1c(NC(=O)CN2CCN(S(=O)(=O)c3cc(Cl)ccc3Cl)CC2)sc(C(=O)N(C)C)c1C, the inhibition was inconclusive: 63.4%. In the case of O=C(Nc1ccccc1)N1CCCCN2[C@H](CO)[C@@H](c3ccc(C#Cc4ccccc4)cc3)[C@H]2C1, the inhibition was inconclusive: 66.3%. With Cc1cccc(C(=O)Oc2ccc(/C=N/NC(=O)c3ccccc3O)cc2)c1 the inhibition was active: 104%. With COc1cccc(-c2ccc3c(c2)[C@@H]2[C@@H](CCN2S(=O)(=O)c2ccc(F)cc2)[C@@H](CO)N3C)c1 the inhibition was inconclusive: 64.4%. For Cc1noc(C)c1S(=O)(=O)Nc1ccc2c(c1)C(=O)N([C@@H](C)CO)C[C@@H](C)[C@H](CN(C)Cc1ccc(C(F)(F)F)cc1)OCCCC[C@@H](C)O2, the inhibition was inconclusive: 62.8%. With Cc1ccc(S(=O)(=O)Nc2ccc3c(c2)CC(=O)N([C@H](C)CO)C[C@H](C)[C@@H](CN(C)Cc2ccc(Cl)c(Cl)c2)O3)cc1 the inhibition was active: 82%. For C[C@@H]1CCCCO[C@@H](CN(C)Cc2ccc(C(F)(F)F)cc2)[C@H](C)CN([C@H](C)CO)C(=O)c2cc(NC(=O)CCC(F)(F)F)ccc2O1, the inhibition was inconclusive: 64.2%. In the case of O=C(CCl)N(c1ccccc1)c1ccccc1, the inhibition was inconclusive: 60.6%. For C[C@@H]1CN([C@@H](C)CO)C(=O)Cc2cc(NC(=O)Nc3cccc4ccccc34)ccc2O[C@H]1CN(C)Cc1ccc(C(F)(F)F)cc1, the inhibition was inconclusive: 61.8%. In the case of COc1ccc(-c2cnc3c(NC=O)cc(-c4ccc(F)cc4)cn23)cc1OC, the inhibition was active: 69.2%. With CCCCS(=O)c1c(O)c2ccccc2[nH]c1=O (stereo unspecified) the inhibition was inconclusive: 62.1%. With O=C(/C=C/c1c(Cl)nc2ccccn12)Nc1ccc(F)cc1 the inhibition was active: 111%. With Cc1ccc(N=Nc2c(N)nn3c(N)c(C#N)c(C)nc23)cc1 the inhibition was inconclusive: 61.7%. In the case of C[C@@H]1CCCCO[C@@H](CN(C)Cc2ccc(C(F)(F)F)cc2)[C@H](C)CN([C@H](C)CO)C(=O)c2cc(NC(=O)Nc3ccccc3)ccc2O1, the inhibition was active: 77.9%. For CCc1nc2ccc(C(=O)NC3CCN(Cc4ccccc4)CC3)cn2c1N(C)Cc1cc2ccccc2s1, the inhibition was inconclusive: 62.3%. In the case of C[C@@H]1CN([C@H](C)CO)C(=O)c2cc(NC(=O)Nc3ccccc3)ccc2O[C@@H](C)CCCCO[C@@H]1CN(C)Cc1ccc2c(c1)OCO2, the inhibition was inconclusive: 65%. In the case of Cc1cc(NC(=O)COc2ccccc2C)ccc1NC(=O)c1ccco1, the inhibition was inactive: -19.1%. For Cc1ccc(S(=O)(=O)N2CC[C@@H]3[C@@H](CO)N(C)c4ccc(-c5ccc(C#N)cc5)cc4[C@@H]32)cc1, the inhibition was inconclusive: 60.9%. With Cc1cccc(Nc2ccc([N+](=O)[O-])cc2C(=O)O)c1 the inhibition was inconclusive: 60.8%. With O=C1/C(=C\c2ccc(Cl)c(Cl)c2)CN(C(=O)CCN2CCOCC2)C/C1=C/c1ccc(Cl)c(Cl)c1 the inhibition was active: 89.2%. For O=C(NCCCCc1ccccc1)c1ccccc1F, the inhibition was inactive: -16.6%. For OC[C@@H]1[C@@H](c2ccc(-c3ccc(F)cc3)cc2)[C@@H]2CN(Cc3ccccn3)CCCCN12, the inhibition was inactive: 11.7%. In the case of CC(C)NC(=O)N(C)C[C@H]1OCCCC[C@@H](C)Oc2ccc(NS(=O)(=O)c3cccs3)cc2C(=O)N([C@H](C)CO)C[C@H]1C, the inhibition was inactive: 0.619%. With O=C(CN1CCOCC1)Nc1ccc(F)cc1 the inhibition was inactive: 23.9%. For O=C(NCc1ccccc1)C(c1cccc2ccccc12)n1c(=O)c(-c2ccccc2)nc2ccccc21 (stereo unspecified), the inhibition was inconclusive: 60.2%. In the case of CC(C)(C)OC(=O)NCc1ccc(NC(=O)c2nc[nH]c2C(=O)N[C@@H](Cc2ccccc2)C(=O)OC(C)(C)C)cc1, the inhibition was inconclusive: 65.7%. For O=C(Cc1cccnc1)N1CC(=O)N2[C@H](C1)[C@H](c1ccc(/C=C/c3ccccc3)cc1)[C@@H]2CO, the inhibition was inconclusive: 61.1%. For O=C(Nc1cccc([N+](=O)[O-])c1)c1ccc([N+](=O)[O-])o1, the inhibition was inconclusive: 62.4%. With C[C@@H]1CCCCO[C@H](CN(C)Cc2ccc(Cl)c(Cl)c2)[C@@H](C)CN([C@@H](C)CO)C(=O)c2cc(NC(=O)NC3CCCCC3)ccc2O1 the inhibition was active: 70.1%. With CCN1C(=O)[C@H]2[C@@H](c3ccc(OC)cc3)N[C@]3(CCCN(Cc4ccc(Br)cc4)C3=O)[C@H]2C1=O the inhibition was inconclusive: 68.5%. For Cc1cc(C)cc(C(=O)NCC(=O)OCN2C(=O)c3ccccc3C2=O)c1, the inhibition was inactive: -6.44%. For C[C@@H]1CN([C@H](C)CO)C(=O)c2c(c3ccccc3n2C)-c2ccccc2CO[C@@H]1CN(C)S(=O)(=O)c1ccccc1F, the inhibition was inconclusive: 64.3%. For COc1ccc(-c2ccc3n(c2=O)C[C@H]2[C@H](CO)[C@@H](C(=O)N(C)C)N(CC4CCCC4)[C@@H]32)cc1, the inhibition was inconclusive: 60.1%. In the case of COc1cccc(-c2ccc3c(c2)[C@@H]2[C@@H](CCN2C(=O)NC2CCCC2)[C@H](CO)N3C)c1, the inhibition was inconclusive: 60%.
